Source: article PMC4336329 (PLoS ONE, 2015)
In all, about 310,000 compounds went through this assay and about 2,200 (0.71%) showed an effect of 50% or more. Effects have a minus sign here. Some of the results follow.

Each molecule was assayed against human ether-à-go-go-related gene (hERG) potassium channel (human, UniProt Q12809) (assay: primary screen, population patch clamp on CHO cells stably expressing hERG).
Chain of human ether-à-go-go-related gene (hERG) potassium channel (Q12809 whole entry, looked up): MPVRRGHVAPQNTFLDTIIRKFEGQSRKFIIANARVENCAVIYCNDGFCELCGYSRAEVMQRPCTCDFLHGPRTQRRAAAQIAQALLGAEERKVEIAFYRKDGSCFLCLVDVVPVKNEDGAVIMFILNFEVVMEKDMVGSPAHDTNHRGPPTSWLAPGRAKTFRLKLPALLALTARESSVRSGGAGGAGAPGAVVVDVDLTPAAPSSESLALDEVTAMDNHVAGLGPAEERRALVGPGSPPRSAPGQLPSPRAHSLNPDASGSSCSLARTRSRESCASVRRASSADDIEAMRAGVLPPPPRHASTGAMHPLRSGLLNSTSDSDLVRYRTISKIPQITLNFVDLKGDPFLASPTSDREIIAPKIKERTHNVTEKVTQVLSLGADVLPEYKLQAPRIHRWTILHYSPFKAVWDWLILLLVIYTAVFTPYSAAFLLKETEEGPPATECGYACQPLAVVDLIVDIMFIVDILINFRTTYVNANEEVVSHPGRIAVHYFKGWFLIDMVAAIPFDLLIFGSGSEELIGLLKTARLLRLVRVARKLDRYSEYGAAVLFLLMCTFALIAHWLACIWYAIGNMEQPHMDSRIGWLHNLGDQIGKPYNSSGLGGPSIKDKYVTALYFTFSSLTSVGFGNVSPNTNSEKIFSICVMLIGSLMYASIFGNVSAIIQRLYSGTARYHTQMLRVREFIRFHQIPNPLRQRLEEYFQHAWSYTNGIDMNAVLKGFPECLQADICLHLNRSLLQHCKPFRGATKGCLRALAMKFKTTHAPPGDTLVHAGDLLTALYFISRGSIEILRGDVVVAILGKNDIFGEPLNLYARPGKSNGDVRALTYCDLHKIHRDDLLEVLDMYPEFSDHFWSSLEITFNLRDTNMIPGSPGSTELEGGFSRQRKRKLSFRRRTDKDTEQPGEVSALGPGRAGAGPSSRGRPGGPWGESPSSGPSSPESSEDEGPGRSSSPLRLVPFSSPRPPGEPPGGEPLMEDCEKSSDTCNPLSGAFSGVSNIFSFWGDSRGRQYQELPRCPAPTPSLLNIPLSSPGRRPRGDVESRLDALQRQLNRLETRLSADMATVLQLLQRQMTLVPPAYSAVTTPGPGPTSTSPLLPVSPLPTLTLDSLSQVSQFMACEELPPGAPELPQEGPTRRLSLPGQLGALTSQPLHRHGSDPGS

Structure (SMILES)	hERG current change (%, negative = inhibition) at 1uM [%]
O=C(O)CC(O)C(=O)O (stereo not shown)	17.6
O=S(=O)(c1ccccc1)N1N=C(c2ccc(Br)cc2)CC1c1ccco1 (stereo not shown)	9.25
CCOC(=O)C1CCCN(c2c(Nc3ccc(C)c(C)c3)c(=O)c2=O)C1 (stereo not shown)	-6.7
CN(CC(=O)Nc1cccc(F)c1)C(=O)C1CCN(S(=O)(=O)c2ccc3c(c2)OCCO3)CC1	-3.13
CCCCNc1c(N)n(CCC)c(=O)[nH]c1=O	18.3
CCOc1nc(NCCc2ccc(OC)c(OC)c2)nc(N2CCN(c3ccc(OC)cc3)CC2)n1	3.13
COc1cc(OC)cc(-n2nnnc2SCC(=O)N2CCCc3ccccc32)c1	1.61
Cc1ccc2nc(NC(=O)C3CCN(S(=O)(=O)c4ccc5c(c4)oc(=O)n5C)CC3)sc2c1	7.18
COC(=O)C1CCN(C(=O)COC(=O)c2cc(-c3ccccc3)nc3ccc(OC)cc23)CC1	4.18
CCOC(=O)N1CCN(c2c(NCc3ccc(Cl)cc3)c(=O)c2=O)CC1	12.7
COc1ccc(CCNC(=O)CSc2nc3cc(Cl)ccc3o2)cc1OC	3.39
CN1CCN(c2nc(-c3ccccc3)ncc2S(=O)(=O)c2ccccc2)CC1	-1.14
O=C(CSCc1ccccc1Br)NC1CC1	11.8
S=C(Nc1ccccc1)Nc1ccc2cn[nH]c2c1	4.09
CC(=O)N1N=C(c2ccc(C)cc2)CC1c1ccco1 (stereo not shown)	15
COc1ccc(-c2csc(NC(=O)CN3C(=O)CCC3=O)n2)cc1OC	18.6
CCN(CC)c1nc2ccccc2c(N)c1-c1ccccc1.O=C(O)C(=O)O	-53.9
COc1ccc(CCNC(=O)CN(c2cc([N+](=O)[O-])ccc2OC)S(C)(=O)=O)cc1OC	8.56
Cc1ccc(Cl)cc1N1CCN(C(=O)C2CCC(=O)N(C3CCCCCC3)C2)CC1 (stereo not shown)	6.13
Nc1nc2ccccc2n1CCOc1ccc(F)cc1	-18.1
CC(C)COC(=O)Nc1nnc(Cc2ccccc2)s1	9.49
Cc1ccc(C(=O)O)cc1NC(=S)NC(=O)c1ccc([N+](=O)[O-])cc1Cl	17.1
COc1ccc(CNC(=O)C(=O)c2cn(CC(=O)N3CCOCC3)c3ccccc23)cc1	13.7
CCOC(=O)C1CCCN(C(=O)c2cc3c(OC)c(OC)c(OC)cc3[nH]2)C1 (stereo not shown)	9.42
Cc1ccccc1CS(=O)(=O)c1cn(CC(=O)N2CCOCC2)c2ccccc12	5.73
CC(C)OCCCNC(=O)c1ccc(CN2CCc3ccccc3C2)cc1	8.03
COc1ccccc1N1CCN(C(=O)c2ccc(-c3ccccc3)cc2)CC1	4.44
Cc1cc(C)cc(C(=O)NC(CC(N)=O)c2ccc(NC3CCCC3)c([N+](=O)[O-])c2)c1 (stereo not shown)	16

Structure (SMILES)	hERG current change (%, negative = inhibition) at 1uM [%]
CCc1c(C)nc(Nc2nc(C)c3ccc(OC)cc3n2)[nH]c1=O	15.4
COC(=O)Cc1cc(=O)n2[nH]c(SC)nc2n1	12.7
CCc1ccc(S(=O)(=O)N2CCN(C(=O)c3cccnc3)CC2)cc1	9.81
Cc1cc(C)cc(N(CC(=O)NCc2cccnc2)S(C)(=O)=O)c1	8.28
O=C(O)c1ccccc1Cc1nc2cc(Cl)ccc2c(=O)[nH]1	11.3
CCOC(=O)C1CCN(C(=O)COC(=O)c2ccc(Br)o2)CC1	5.96
Oc1cccc2ccc(/C=C/c3c(F)cccc3Cl)nc12	19.7
CCn1c(=O)c2cc(C(=O)NCC(OC)OC)sc2c2ccccc21	10.5
O=C(CSc1nc2ccc([N+](=O)[O-])cc2[nH]1)NCCc1ccccc1	10.5
Cc1ccc(C(=O)NCc2nnc3c(C(F)(F)F)cc(Cl)cn23)o1	11.9
CC(C)(C)OC(=O)NCCCCCNC(=O)c1[nH]cnc1C(=O)N[C@@H](Cc1ccccc1)C(=O)OCc1ccccc1	8.8
COc1ccc(OC)c(NC(=O)c2ccc(Cl)cc2)c1	9.06
O=C1CC(NS(=O)(=O)c2cccnc2)CN1c1ccccc1 (stereo not shown)	3.59
O=C(CCNC(=O)Cn1ccc2ccccc2c1=O)NCCCN1CCN(c2ccc(F)cc2)CC1	9.51
Cc1cc(C)c(NN=c2c(=O)c3ccccc3c2=O)c(C)c1	-4.07
C=CCn1c(SCC(=O)Nc2c(C)n(C)n(-c3ccccc3)c2=O)nc2sc(C)c(C)c2c1=O	-21.6
CC(=O)CC(=O)Nc1ncccn1	14.5
COCCCNC(=O)/C(C#N)=C/c1c(N2CCN(C)CC2)nc2ccccn2c1=O	25.1
CCOc1ccccc1/C=N/NC(=O)c1cccc(S(=O)(=O)N(CC)CC)c1	-2.02
CC(C)Sc1nnc(Nc2ccccc2)s1	3.42
C=CCOC(=O)C1=C(C)NC(=O)NC1/C=C/c1ccccc1 (stereo not shown)	8.57
c1ccc(Nc2ncnc3[nH]ncc23)cc1	11.5
NS(=O)(=O)c1ccc(NC(=O)c2cc(-c3cc(Cl)ccc3O)n[nH]2)cc1	14.3
Cc1cc(C)c(S(=O)(=O)N2CCOC2CNC(=O)C(=O)NCc2ccccn2)c(C)c1 (stereo not shown)	13
Cc1ccc(CSC2=Nc3ccccc3C3=NC(CCC(=O)NCc4ccco4)C(=O)N23)cc1 (stereo not shown)	-1.29
C/C=C/c1ccc(OCCCNC(C)CC)c(OC)c1.O=C(O)C(=O)O (stereo not shown)	4.69
CCC(C(=O)N1CCN(Cc2ccc3c(c2)OCO3)CC1)n1c(=O)[nH]c2ccccc2c1=O (stereo not shown)	-8.55
